For 42 sequences, binding signal results are on record in article PMC7819943, “Rice protein-binding microarrays: a tool to detect cis-acting elements near promoter regions in rice”.

The list shows a part of the results.

This test addresses T1, OsWOX13 (Oryza sativa, UniProt Q5QMM3 1-267).
T1 sequence: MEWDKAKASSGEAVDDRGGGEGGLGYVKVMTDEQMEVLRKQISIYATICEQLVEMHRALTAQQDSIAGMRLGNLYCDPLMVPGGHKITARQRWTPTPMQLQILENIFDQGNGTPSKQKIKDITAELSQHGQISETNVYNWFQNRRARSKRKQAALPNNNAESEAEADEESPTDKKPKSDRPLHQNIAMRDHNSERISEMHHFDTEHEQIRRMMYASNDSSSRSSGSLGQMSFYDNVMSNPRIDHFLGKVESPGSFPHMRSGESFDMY
The test can be described thus: protein-binding microarray (RPBM); PBS, 2% BSA, 51.3 ng/ul salmon testes DNA, 50 uM zinc acetate, 200 nM TF, 25 C, 1 h; high values mean tight binding. To be noted: protein: recombinant; tags: N-terminal polyhistidine and DsRed monomer fusion (pET32a); label: CyDye5-dUTP incorporated in the synthesized complementary strand; 3' TTTTT single-stranded linker to array surface; dsDNA, one strand shown. The method, boiled down:
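In PBS with 2% BSA, salmon testes DNA and 50 µM zinc acetate, 200 nM protein was incubated on a custom Agilent array at 25 °C for 1 h and then washed off. The array had been made double-stranded by primer extension with Cy5-dUTP and blocked with 2% BSA. The proteins were transcription factors fused N-terminally to polyhistidine and DsRed, expressed in E. coli BL21-CodonPlus and purified on Ni–NTA. The binding signal is per-feature fluorescence intensity (arbitrary units) from an Axon 4000B scanner.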
As to “TGCAAACATCGAAAGTAATTACCGTATCATTGGATTCCGGCGGAGTCACCTAGTGCAG”, the binding signal was 4160 fluorescence intensity (a.u.). To “ACACGCTAATCAAACCACCCGAACCACCTTTTATCACTGTCGGAGTCACCTAGTGCAG” belongs 4590 fluorescence intensity (a.u.). To “CACAAATATTATTATACATCAATTAAATGCACAATCCAAGCGGAGTCACCTAGTGCAG” belongs 5810 fluorescence intensity (a.u.); to “ATAATAACAATATAATTGAGTTTGTCTTGTACAACTAGTTCGGAGTCACCTAGTGCAG”, 10600 fluorescence intensity (a.u.).

With “TTAAACTGTTAAACGGTATATTTGTTTTAAAGTTTTCTAACGGAGTCACCTAGTGCAG”, the binding signal was 4220 fluorescence intensity (a.u.). To “GAAATGATGTTTCAATTATTCACTGCAATATTTGATCTATCGGAGTCACCTAGTGCAG” belongs 8220 fluorescence intensity (a.u.); to “AAGAATGATTGGGACTCATCAAGAACATATGGTTCTGAGACGGAGTCACCTAGTGCAG”, 34200 fluorescence intensity (a.u.). To “CATTAAATCTATAATTGAATAAATTTTCATAATATATTAGCGGAGTCACCTAGTGCAG” belongs 14300 fluorescence intensity (a.u.); to “TCCAGCGTGATTTGTTCCAGGATGCGACGAGTCGACGATGCGGAGTCACCTAGTGCAG”, 20700 fluorescence intensity (a.u.). As for “AATTAATTTGCATATTCTGAAACGAACACACCGGTTTGCTCGGAGTCACCTAGTGCAG”, the figure is 28700 fluorescence intensity (a.u.); as for “TATCTGATTGAATTTGAAAGCTGAATATAATTTGACTTTGCGGAGTCACCTAGTGCAG”, 42000 fluorescence intensity (a.u.). “AAATAAAATGCTAACTGGATTGCCACGCGTATAAAACAGCCGGAGTCACCTAGTGCAG”: the binding signal is 6230 fluorescence intensity (a.u.). As for “TCTAATCATCAGACTAATTCTATGTCACGAAAATTACTTACGGAGTCACCTAGTGCAG”, the figure is 3560 fluorescence intensity (a.u.); as for “AATAGATAGATAGATAGATAGACGGTAGGAGCCACATGTCCGGAGTCACCTAGTGCAG”, 38100 fluorescence intensity (a.u.). As for “CTAGATTTGTAGTATCACGATATGTCCCATTCAGTTCTAGCGGAGTCACCTAGTGCAG”, the figure is 17300 fluorescence intensity (a.u.); as for “CAGTGCCGTGCCGCCGGAGATGATTGGCACCCTGGCGACCCGGAGTCACCTAGTGCAG”, 5710 fluorescence intensity (a.u.).

In the case of “CTAAATTGGGCTTTTAGCCCATGTAGAACAGGAGTACTAGCGGAGTCACCTAGTGCAG”, the binding signal was 18500 fluorescence intensity (a.u.). To “TCAACCATTAGCCCATAATTAATTTTATAGTATTTAGTTACGGAGTCACCTAGTGCAG” belongs 7290 fluorescence intensity (a.u.).

In the case of “GAGCTATTGATTGATTGATTGCTGATCGCTTCCAGTTCCACGGAGTCACCTAGTGCAG”, the binding signal was 54700 fluorescence intensity (a.u.). To “CACGTGATTTTCGTGTGGAGAGGAGATGGGTGGGCGAAAGCGGAGTCACCTAGTGCAG” belongs 3520 fluorescence intensity (a.u.).

Regarding “CCACTAAATTATCAGACGATAATTAAGTACCACTCTCTCTCGGAGTCACCTAGTGCAG”, the binding signal is 31200 fluorescence intensity (a.u.). As for “AGCTCTTTCTTGATTAGATCATCTCATGCTTTGCCCAGTCCGGAGTCACCTAGTGCAG”, the figure is 10800 fluorescence intensity (a.u.); as for “ATAGATCAATCACAAAAGACACGAACATCAGTCAACAAAACGGAGTCACCTAGTGCAG”, 9680 fluorescence intensity (a.u.); as for “ATAATTAACAAAATTTGACAGCAAACTAAATATAGCTATTCGGAGTCACCTAGTGCAG”, 47100 fluorescence intensity (a.u.).

As to “CTGATTAAACAAAACGAAGATGCTGGGAAGCTCATGTCGACGGAGTCACCTAGTGCAG”, the binding signal is 15900 fluorescence intensity (a.u.). As for “ACAAAATTAAATTACTGGAGTAGTAGAGTGCTAGTAGACCCGGAGTCACCTAGTGCAG”, the figure is 16500 fluorescence intensity (a.u.); as for “AATAATTTATAAATCTCTGAAACGAAAATCAGGGTGTGAACGGAGTCACCTAGTGCAG”, 23400 fluorescence intensity (a.u.). To “CACTTTGTCAGATGAATGATTGGCCCAAATAAAAGTTATACGGAGTCACCTAGTGCAG” belongs 6850 fluorescence intensity (a.u.); to “TAAGATGATCGGACTCCTAATTACAGCTCATGATTTTCTTCGGAGTCACCTAGTGCAG”, 5820 fluorescence intensity (a.u.); to “TCAGATTTTATTTGGACGGTTAGATTGCTATCTTTCCCGGCGGAGTCACCTAGTGCAG”, 3830 fluorescence intensity (a.u.). As for “ACTTAATATGTAACCATACCATATCATTATCCACTAGCAACGGAGTCACCTAGTGCAG”, the figure is 4080 fluorescence intensity (a.u.). On to “TAATTAAATTGTACAGATAAATCCTATTCAGGGTAATAGGCGGAGTCACCTAGTGCAG”, for which the binding signal is 6110 fluorescence intensity (a.u.). As for “CATCATGACGGCAATCATCGGCGACACGTGCCCGCAGCGGCGGAGTCACCTAGTGCAG”, the figure is 6580 fluorescence intensity (a.u.).

With “TTAATTGAGTTTTAATTATTACAAACTTAGAAAATAGATTCGGAGTCACCTAGTGCAG”, the binding signal was 23300 fluorescence intensity (a.u.).

For the sequence “TTGATTGTATCCCTGGGCACTTGTATTCTTGAGTGGATTTCGGAGTCACCTAGTGCAG”, the binding signal is 8740 fluorescence intensity (a.u.). To “CTGACAGGTATTATTGCTTGATATATTTTACTCACTTTACCGGAGTCACCTAGTGCAG” belongs 14800 fluorescence intensity (a.u.). As for “GAAGATTGAGGAGACGGGGTAGAGGAAGAGGTGGTGCACGCGGAGTCACCTAGTGCAG”, the figure is 10900 fluorescence intensity (a.u.). As for “TTAGTTGAATGACAATTCCGGAATTCTAGATTGGTTTTCTCGGAGTCACCTAGTGCAG”, the figure is 9490 fluorescence intensity (a.u.); as for “ACATAGATTGCGACTAATTTTCACCCTTTCACCCTAATTGCGGAGTCACCTAGTGCAG”, 47800 fluorescence intensity (a.u.); as for “TTTGAAATGACAGATCAACTCATTGTGATATCTGAGTTTGCGGAGTCACCTAGTGCAG”, 6090 fluorescence intensity (a.u.). For the sequence “AAGGAGAAATTAAATTATCTTGGATATTTCAAAATCAAGGCGGAGTCACCTAGTGCAG”, the binding signal is 4340 fluorescence intensity (a.u.). To “AAACAAATTTAACATATGAATAGTACCATATATTGTTCACCGGAGTCACCTAGTGCAG” belongs 12400 fluorescence intensity (a.u.).
